Test results as given in the supplement of paper PMC3334620.
Over roughly 33,000 sequences, “E-score (-0.5 to 0.5)” has its median near -0.036; the highest 2% begin near 0.37. Some of the results follow.

target: T1, Yer064c (UniProt P40041); assay: PBM E-score (8-mer binding enrichment) (E-score (-0.5 to 0.5)); higher = stronger / more preferred TF binding; most listed sequences are background and not binding sites; settings: protein concentration: 200 nM; construct: GST-full length
T1 sequence: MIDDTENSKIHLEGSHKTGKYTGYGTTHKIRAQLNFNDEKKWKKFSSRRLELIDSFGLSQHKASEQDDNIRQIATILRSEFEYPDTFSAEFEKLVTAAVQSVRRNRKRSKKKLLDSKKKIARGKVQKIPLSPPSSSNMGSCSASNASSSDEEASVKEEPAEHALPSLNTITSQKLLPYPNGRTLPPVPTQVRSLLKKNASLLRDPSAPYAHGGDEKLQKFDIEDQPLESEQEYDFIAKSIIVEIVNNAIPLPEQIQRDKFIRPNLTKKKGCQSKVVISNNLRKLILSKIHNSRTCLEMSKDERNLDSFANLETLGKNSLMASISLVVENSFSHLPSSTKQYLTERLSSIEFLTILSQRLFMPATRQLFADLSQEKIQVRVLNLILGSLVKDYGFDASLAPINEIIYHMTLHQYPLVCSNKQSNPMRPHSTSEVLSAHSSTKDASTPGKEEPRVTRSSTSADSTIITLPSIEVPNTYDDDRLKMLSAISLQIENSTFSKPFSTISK
Summary of the method: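 Detection of bound protein used fluorescent anti-GST, with scans normalised by masliner. The proteins were GST-tagged yeast transcription factors applied at about 100-200 nM to universal all-10-mer Agilent arrays made double-stranded by primer extension. Each ungapped eight-base word, pooled with its reverse complement, was scored with an E-score from the Universal PBM Analysis Suite.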

Sequence	PBM E-score
ATACAGAT	-0.058
TCTGAACA	-0.0894
CTATTAGA	0.102
CCAATAGG	-0.159
ATGGTCTA	0.0765
GAAACGTC	-0.263
AGAGTGAT	0.272
GTTAATTA	0.0895
CTTTAACA	-0.0802
ATGTCAGC	-0.0283
ACGGTTCT	-0.0614
AGCCGGGA	-0.254
CTACTTTC	0.0258
ATGTTCTC	-0.0875
CGCGGCGA	0.0199
AACGGACG	0.0149
CTTTGTGC	-0.111
TCCACTCA	0.0393
AGTTATGA	0.167
ATCGAGTA	0.138
CCGCATTA	-0.268
ATACCCTC	-0.0958
AAAATAAA	0.082
GTTGAGGA	-0.048
GTGTGCGA	0.0296

Sequence	PBM E-score
CGGTCGAC	-0.0378
CGGTTGTA	-0.173
TGATGCCA	-0.152
ATTCAAAA	0.2
CGGCGAAC	-0.11
ACGAACTA	0.108
CTCTTCAA	0.0517
GATTTTCC	-0.07
AAACTGAC	0.0698
ACTAATAG	0.211
TCGGTCCA	-0.287
GTACTGTA	-0.145
ATGGCGAC	0.0194
AGCGAAGA	0.0987
AAGCTCCG	-0.23
AAACACAG	0.123
TCGTCAAA	0.0778
CCCGTTAC	-0.106
CTACGGTA	0.0309
CGGGGTGC	-0.272
CTGCTGTA	-0.112
GAGATGTA	0.0684
GAAGAAGA	0.0213
CCTGCTTA	-0.023
AAACTGCT	-0.232

Sequence	PBM E-score
AACTGCCT	0.135
CTTGTTAA	0.157
ATCCCCTC	-0.188
CGTACGAA	-0.0481
AAACTGTC	-0.23
AACTGGCG	-0.0703
AAGGTAAT	0.227
CTACCTAG	-0.16
CGAGGGAC	-0.309
GATGTCGA	-0.00432
CTAAGCCC	-0.0644
TAGGAGCA	-0.00171
AGTTTGCG	-0.165
AATATTTC	0.0886
CGATCGTA	0.05
CTGCCCTA	-0.0272
AAGAATGG	-0.119
CCCGGTTA	-0.0703
ACCCTGTG	-0.0328
ATACTCCA	-0.0217
GCAGCCAC	0.176
CGAACTCA	0.225
CAATCTCA	0.0597
AAACCAGT	0.0665
CGGCCGCA	-0.109

Sequence	PBM E-score
AAACGCGT	-0.0178
GCGGTTCC	-0.174
AACTCCAT	0.0309
GATTCTAC	0.169
GTGATTAA	0.452
AAAAGTCG	0.0277
ACGGAATC	0.229
GCACGACA	-0.218
TCGAGAGA	-0.0213
AATTGACG	-0.178
CGGATACA	-0.0362
CCTTAACC	0.0403
CCAGAGCA	-0.0532
CATGGCCA	-0.107
ACGATTAC	0.185
GATTAGGC	0.25
CAGTACCA	0.0191
AGATCCTG	-0.0248
GTTACGCA	-0.0966
CCGCATCA	-0.101
CAGTGGAA	-0.00531
ATGACACA	0.165
AATTGATA	0.1
CTTCCTCA	-0.0401
CCCCTCTC	-0.264

Sequence	PBM E-score
ATGATCGC	-0.0456
AGCGGGAA	-0.153
ATCATGTA	0.195
GATACCGC	-0.156
ATTCGTAA	0.0198
CGAGACCA	0.00349
CGTCACAA	-0.0973
CAGTTAGA	0.105
AAGAACTC	0.0647
GCCTGAGA	0.033
GCAAGCAC	-0.269
TATACACA	0.147
ATGTCATG	0.214
TCCTATCA	-0.0302
ATTCTATA	0.0793
ATACGCTG	-0.0609
GGACGAGA	-0.323
CTAAGGTC	0.0684
CATGGGCG	-0.052
CTACAAGC	-0.19
ACAAAATG	-0.157
CTCGTTCC	-0.0337
GGTAGCGA	-0.172
GAAGAGCA	-0.0587
ACGCGCAC	-0.231

Sequence	PBM E-score
CTTGCTTA	0.0548
CCACGCAA	-0.122
CAAGAGCA	-0.174
ATCCACCA	0.0875
GAAAAGGC	-0.188
TACACCGA	0.034
ATATGCCA	-0.311
AACCCGGT	-0.258
TCAACAAA	0.0993
AACACATA	0.113
GTGCCTGA	0.0131
ACACGGTA	0.0338
ACAACGGT	-0.116
AAACGATG	-0.0198
TAGCTGCA	-0.231
ATATGGGC	-0.128
CCACCGAC	0.0567
AATCCTGC	-0.0324
AAAGAGAT	-0.0903
TACAGATA	0.0323
AGAATGAA	0.18
TCGGCTAA	0.0152
AGACGGTA	-0.0984
TAGTTGGA	-0.00186
AACCCGTT	-0.223

Sequence	PBM E-score
GCTCAGAC	0.05
CACCCAGC	-0.185
ACTCGAGT	0.283
AAAACGGG	-0.0311
AGGCAGCC	-0.219
AATTGGGG	-0.266
GAAGCTCA	-0.0335
CGCCTCCC	-0.374
ACTACAGG	0.179
CAGAGGGC	-0.171
ACTCGGAC	0.228
CTACCAGC	-0.0876
ATGACGAA	0.00502
ACTAAGCT	0.169
AGACTGCC	0.0288
CACCACCG	-0.249
CCGTGGGC	-0.156
AGCCAGTC	0.126
AGAAGCGG	-0.208
AGTATGAA	0.128
AGTTTGAG	0.0805
GCAGTCGC	0.209
